Each structure is given as a SMILES string. About 14,000 (4.5%) of roughly 310,000 compounds showed an effect of 50% or more. The effect is printed as a negative number. This is one part of the list.
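Also: peak tail current of the secondary pulse compared with the same well before compound.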

human ether-à-go-go-related gene (hERG) potassium channel, sequence (Q12809 whole entry, looked up): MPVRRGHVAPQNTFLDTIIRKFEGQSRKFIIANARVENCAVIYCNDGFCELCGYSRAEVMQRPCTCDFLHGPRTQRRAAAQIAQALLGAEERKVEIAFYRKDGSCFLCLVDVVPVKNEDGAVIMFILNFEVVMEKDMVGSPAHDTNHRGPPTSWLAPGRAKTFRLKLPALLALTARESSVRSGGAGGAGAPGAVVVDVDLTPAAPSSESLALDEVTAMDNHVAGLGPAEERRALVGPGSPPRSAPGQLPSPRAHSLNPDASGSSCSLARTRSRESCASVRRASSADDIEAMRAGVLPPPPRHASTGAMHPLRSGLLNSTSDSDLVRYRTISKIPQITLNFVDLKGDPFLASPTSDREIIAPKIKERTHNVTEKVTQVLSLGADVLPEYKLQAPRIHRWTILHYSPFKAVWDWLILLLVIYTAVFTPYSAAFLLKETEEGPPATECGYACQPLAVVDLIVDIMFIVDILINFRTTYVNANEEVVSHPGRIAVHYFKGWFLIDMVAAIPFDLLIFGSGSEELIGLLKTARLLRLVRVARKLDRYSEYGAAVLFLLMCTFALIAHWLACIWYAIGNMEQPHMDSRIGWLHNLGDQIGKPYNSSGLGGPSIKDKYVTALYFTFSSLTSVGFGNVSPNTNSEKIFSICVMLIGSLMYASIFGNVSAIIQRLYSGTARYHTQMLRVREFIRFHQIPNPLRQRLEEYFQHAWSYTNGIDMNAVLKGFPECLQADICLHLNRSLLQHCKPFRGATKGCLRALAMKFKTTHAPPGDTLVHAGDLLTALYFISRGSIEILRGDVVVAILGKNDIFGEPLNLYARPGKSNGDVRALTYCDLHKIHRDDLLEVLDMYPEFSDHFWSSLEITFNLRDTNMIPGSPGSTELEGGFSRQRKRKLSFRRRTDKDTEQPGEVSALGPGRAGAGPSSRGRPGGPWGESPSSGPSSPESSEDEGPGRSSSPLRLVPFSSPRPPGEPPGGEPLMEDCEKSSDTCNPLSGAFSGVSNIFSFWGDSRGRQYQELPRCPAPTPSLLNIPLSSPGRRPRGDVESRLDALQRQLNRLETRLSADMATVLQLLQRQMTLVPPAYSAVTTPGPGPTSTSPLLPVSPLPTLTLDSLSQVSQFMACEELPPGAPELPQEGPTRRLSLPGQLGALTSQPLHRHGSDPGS

This assay concerns the target human ether-à-go-go-related gene (hERG) potassium channel (human, UniProt Q12809). Description: primary screen, population patch clamp on CHO cells stably expressing hERG.
On to `O=C1c2ccccc2C(O)(Cc2ccccc2)N1c1ccc2c(c1)OCO2` (stereo not shown), for which the “hERG current change (%, negative = inhibition) at 10uM” value was determined as 10.8%.

Regarding `Cc1ccc[n+](CC2OCc3ccccc3CO2)c1.[Br-]`, the “hERG current change (%, negative = inhibition) at 10uM” value amounted to 2.24%. With `COc1ccc(N2CCN(C(=O)c3ccc(Br)cc3)CC2)c([N+](=O)[O-])c1`, the “hERG current change (%, negative = inhibition) at 10uM” value is listed as -72.3%. Regarding `COCCn1c(O)c(/C=N/NC(=O)CSC(=S)N2CCCC2)c(=O)[nH]c1=S`, the “hERG current change (%, negative = inhibition) at 10uM” value is 7.28%.

For `CCSc1nnc(NC(=O)c2cnccn2)s1`, the “hERG current change (%, negative = inhibition) at 10uM” value amounted to 11.5%. For `CC1(C)Cc2nc3sc4c(N(CCO)CCO)nnnc4c3cc2CO1`, the “hERG current change (%, negative = inhibition) at 10uM” value is -3.74%.

Regarding `O=C(NC(=S)Nc1ccc(NC(=O)c2ccccc2)cc1)c1ccc(F)cc1`, the “hERG current change (%, negative = inhibition) at 10uM” value is reported as 8.25%. With `COc1ccc(C(C(=O)NC2CCCCC2)N(C(=O)Cc2c[nH]c3ccccc23)c2ccccc2)cc1OC` (stereo not shown) the figure was 9.86%.

`Cc1ccc(S(=O)(=O)Nc2ccccc2N(C)S(=O)(=O)c2ccc(C)cc2)cc1`: the “hERG current change (%, negative = inhibition) at 10uM” value was 0.237%. In the case of `COc1ccc(CC(=O)OCc2cc3cccc(C)c3[nH]c2=O)cc1`, the “hERG current change (%, negative = inhibition) at 10uM” value is given as -0.363%. For the compound `CC(C)c1ccc(OCC(=O)Nc2cccc(C(=O)Nc3ccccc3C(=O)O)c2)cc1`, the “hERG current change (%, negative = inhibition) at 10uM” value was found to be 24.3%.

As to `CCOc1ccc2oc(C(=O)N(CCOC)c3c(N)n(CC(C)C)c(=O)[nH]c3=O)c(C)c2c1`, the “hERG current change (%, negative = inhibition) at 10uM” value is listed as -10.2%. Take `COc1ccc(OC)c(N2C(=O)NC(=O)C3(Cc4cc(C)ccc4N(C)C3)C2=O)c1` (stereo not shown): the “hERG current change (%, negative = inhibition) at 10uM” value is -5.52%. Take `C=CCNc1nc(C(=O)OCC(=O)c2ccc(OC)cc2OC)cs1`: the “hERG current change (%, negative = inhibition) at 10uM” value is given as -3.88%. With `O=c1[nH]cnc2scc(-c3ccccc3)c12`, the “hERG current change (%, negative = inhibition) at 10uM” value is 17.2%. For `O=C(CSc1ccc(Cl)cc1)Nc1ccc(-c2nc3ccccc3[nH]2)cc1`, the “hERG current change (%, negative = inhibition) at 10uM” value is recorded as 7.22%.

Consider `Cc1nc2c(=O)n(C)c(=O)n(C)c2nc1Cl`, for which the “hERG current change (%, negative = inhibition) at 10uM” value is -7%. Next, `CC(=O)Nc1ccc(S(=O)(=O)Nc2cccc3cccnc23)cc1`: -1.83%; `CCC(c1nnnn1C1CCCCC1)N1CCN(C2CCCC2)CC1.Cl` (stereo not shown): -3.77%; `COc1ccc(-n2c(SCC(=O)Nc3cc(C)on3)nc3ccc(O)cc3c2=O)cc1OC`: 12%. For the compound `Cc1ccc(C)c(OCc2cc(C(=O)N(C)Cc3ccccn3)no2)c1`, the “hERG current change (%, negative = inhibition) at 10uM” value is reported as -8.55%.

Regarding `Cc1ccc(C(=O)NCCCNC(=O)Cc2ccc(Cl)cc2)cn1`, the “hERG current change (%, negative = inhibition) at 10uM” value is on record as -2.28%. On to `CC/C(=N\NC(=O)CNC(=O)/C=C/c1ccco1)c1ccccc1`, for which the “hERG current change (%, negative = inhibition) at 10uM” value is -4.67%. With `CCc1ccc(C(=O)NNc2ccc(C)c(Cl)c2)cc1` the figure was -0.312%; with `COc1ccccc1NC(=O)c1ccc(Cl)c(S(=O)(=O)N2CCCCC2)c1`, -18.8%; with `CCOC(=O)C(C)Sc1nnc(Cc2cc(=O)[nH]c(=O)[nH]2)n1-c1ccc(OCC)cc1` (stereo not shown), 3.87%. For the compound `Cc1ccccc1NC(=O)NC1(C(=O)N2CCC(O)CC2)CCCCC1`, the “hERG current change (%, negative = inhibition) at 10uM” value is 21.6%.

With `COc1ccc(C(=O)OCC(=O)Nc2ccc3[nH]c(=O)[nH]c3c2)c(OC)c1OC`, the “hERG current change (%, negative = inhibition) at 10uM” value was 6.41%. Next, `Cc1ccc(S(=O)(=O)NCCC(=O)NCc2ccco2)cc1`: 4.19%.

With `C=CCOc1ccc(/C=C2/C(=N)N3N=C(CC(=O)N4CCCC4)SC3=NC2=O)cc1OC`, the “hERG current change (%, negative = inhibition) at 10uM” value is reported as 18.6%. For the compound `Cc1cccc(CS(=O)(=O)Cc2ccc(C(=O)N3CCC4(CC3)OCCO4)o2)c1`, the “hERG current change (%, negative = inhibition) at 10uM” value was 5.83%.

On to `O=C(Nc1nccs1)c1ccc(-c2ccccc2[N+](=O)[O-])o1`, for which the “hERG current change (%, negative = inhibition) at 10uM” value is on record as -17.8%. As to `Cc1ccccc1Cn1c(=O)n(CCCC(=O)NCc2ccco2)c(=O)c2sccc21`, the “hERG current change (%, negative = inhibition) at 10uM” value is on record as -31.4%. With `CC(C)c1cc(NC(=O)c2ccccc2)cc(C(C)C)c1O` the figure was -20.4%; with `Cn1c(=O)c(NCCO)c2c3c(cccc31)C(=O)c1ccccc1-2`, -20.2%. With `Cc1ccc(S(=O)(=O)N2CCCCC2)cc1NC(=O)C1CC(=O)N(Cc2ccco2)C1` (stereo not shown), the “hERG current change (%, negative = inhibition) at 10uM” value is given as 3.83%. As for `COc1ccc(C(O)c2ncc(C(F)(F)F)cc2Cl)cc1` (stereo not shown), the “hERG current change (%, negative = inhibition) at 10uM” value turned out to be 9.8%.

As to `C/C(=N\NC(=O)C12CCC(C)(C(=O)O1)C2(C)C)c1ccccc1O` (stereo not shown), the “hERG current change (%, negative = inhibition) at 10uM” value was -48.6%. As for `CS(=O)(=O)N1CCN(C(=O)c2cccnc2)CC1`, the “hERG current change (%, negative = inhibition) at 10uM” value turned out to be 12.1%.

As for `CC1CCN(Cc2c(C(=O)N/N=C/c3cc(Cl)ccc3O)nnn2-c2nonc2N)CC1`, the “hERG current change (%, negative = inhibition) at 10uM” value is recorded as 26.2%. As to `CC1CCN(C(=O)CSc2nnc(CNC(=O)c3ccco3)o2)CC1`, the “hERG current change (%, negative = inhibition) at 10uM” value is given as 21.2%. Next, `NS(=O)(=O)c1cccc(NC(=O)COC(=O)C2(c3cccc(F)c3)CCCC2)c1`: -6.66%. Consider `Cc1ccc(NC(=O)C2CC(=O)N(CCc3ccccc3)C2)cc1Cl` (stereo not shown), for which the “hERG current change (%, negative = inhibition) at 10uM” value turned out to be 5.07%.

The values above are taken from publication PMC4336329 (PLoS ONE, 2015).
